These results are taken from the GPR68 mutational scans of Howard et al. (2025).

The least precise scores are not listed. Two further conditions of the source, in which the scores hardly spread, are not listed. Read del as a deletion of the residues named and ins as an insertion between two positions. For part of these data: The data file names ogerin without a concentration.

The chains are these.
B1: GPR68, Q15743 (parent)
chain: MGNITADNSSMSCTIDHTIHQTLAPVVYVTVLVVGFPANCLSLYFGYLQIKARNELGVYLCNLTVADLFYICSLPFWLQYVLQHDNWSHGDLSCQVCGILLYENIYISVGFLCCISVDRYLAVAHPFRFHQFRTLKAAVGVSVVIWAKELLTSIYFLMHEEVIEDENQHRVCFEHYPIQAWQRAINYYRFLVGFLFPICLLLASYQGILRAVRRSHGTQKSRKDQIQRLVLSTVVIFLACFLPYHVLLLVRSVWEASCDFAKGVFNAYHFSLLLTSFNCVADPVLYCFVSETTHRDLARLRGACLAFLTCSRTGRAREAYPLGAPEASGKSGAQGEEPELLTKLHPAFQTPNSPGSGGFPTGRLA

The variants in data set [1] derive from B1. The data set is described as follows: cAMP reporter score (Enrich2 score, wild type = 0); higher = more signal; HEK293T, FACS bins.
The variants in data set [2] derive from B1. The data set is described as follows: surface expression score (Enrich2 score, wild type = 0); higher = more signal; HEK293T, FACS bins.

Consider R295_D296insGSG, for which the cAMP reporter score was -0.559 in data set [1] (pH 5.5); -0.49 in data set [1] (pH 6); -0.765 in data set [1] (pH 6, modulator: ogerin); -0.891 in data set [1] (pH 6.5, modulator: ogerin). Further, the surface expression score in data set [2] worked out at 0.475.

Take R295del: the cAMP reporter score in data set [1] (pH 5.5) is -1.07; in data set [1] (pH 6), -1.1; in data set [1] (pH 6, modulator: ogerin) it was -0.816; in data set [1] (pH 6.5, modulator: ogerin) it was -1.21. In data set [2], the surface expression score stood at 0.493.

For the variant MGNITADNSSMSCTIDHTIHQTLAPVVYVTVLVVGFPANCLSLYFGYLQIKARNELGVYLCNLTVADLFYICSLPFWLQYVLQHDNWSHGDLSCQVCGILLYENIYISVGFLCCISVDRYLAVAHPFRFHQFRTLKAAVGVSVVIWAKELLTSIYFLMHEEVIEDENQHRVCFEHYPIQAWQRAINYYRFLVGFLFPICLLLASYQGILRAVRRSHGTQKSRKDQIQRLVLSTVVIFLACFLPYHVLLLVRSVWEASCDFAKGVFNAYHFSLLLTSFNCVADPVLYCFVSETTHRDDARLRGACLAFLTCSRTGRAREAYPLGAPEASGKSGAQGEEPELLTKLHPAFQTPNSPGSGGFPTGRLA [L297D], the cAMP reporter score in data set [1] (pH 5.5) was -1.83; in data set [1] (pH 6), -1.12; in data set [1] (pH 6, modulator: ogerin), -1.45; in data set [1] (pH 6.5, modulator: ogerin), -1.5. The surface expression score in data set [2] is -0.067.

With MGNITADNSSMSCTIDHTIHQTLAPVVYVTVLVVGFPANCLSLYFGYLQIKARNELGVYLCNLTVADLFYICSLPFWLQYVLQHDNWSHGDLSCQVCGILLYENIYISVGFLCCISVDRYLAVAHPFRFHQFRTLKAAVGVSVVIWAKELLTSIYFLMHEEVIEDENQHRVCFEHYPIQAWQRAINYYRFLVGFLFPICLLLASYQGILRAVRRSHGTQKSRKDQIQRLVLSTVVIFLACFLPYHVLLLVRSVWEASCDFAKGVFNAYHFSLLLTSFNCVADPVLYCFVSETTHRDCARLRGACLAFLTCSRTGRAREAYPLGAPEASGKSGAQGEEPELLTKLHPAFQTPNSPGSGGFPTGRLA [L297C], the cAMP reporter score is -0.028 in data set [1] (pH 5.5); -0.11 in data set [1] (pH 6); -0.33 in data set [1] (pH 6, modulator: ogerin); -0.914 in data set [1] (pH 6.5, modulator: ogerin). The surface expression score in data set [2] worked out at 0.024.

MGNITADNSSMSCTIDHTIHQTLAPVVYVTVLVVGFPANCLSLYFGYLQIKARNELGVYLCNLTVADLFYICSLPFWLQYVLQHDNWSHGDLSCQVCGILLYENIYISVGFLCCISVDRYLAVAHPFRFHQFRTLKAAVGVSVVIWAKELLTSIYFLMHEEVIEDENQHRVCFEHYPIQAWQRAINYYRFLVGFLFPICLLLASYQGILRAVRRSHGTQKSRKDQIQRLVLSTVVIFLACFLPYHVLLLVRSVWEASCDFAKGVFNAYHFSLLLTSFNCVADPVLYCFVSETTHRDAARLRGACLAFLTCSRTGRAREAYPLGAPEASGKSGAQGEEPELLTKLHPAFQTPNSPGSGGFPTGRLA [L297A]: the cAMP reporter score in data set [1] (pH 5.5) is 0.343; in data set [1] (pH 6), -0.477; in data set [1] (pH 6, modulator: ogerin), 0.399; in data set [1] (pH 6.5, modulator: ogerin), 0.095. Further, the surface expression score in data set [2] was 0.206.

On to MGNITADNSSMSCTIDHTIHQTLAPVVYVTVLVVGFPANCLSLYFGYLQIKARNELGVYLCNLTVADLFYICSLPFWLQYVLQHDNWSHGDLSCQVCGILLYENIYISVGFLCCISVDRYLAVAHPFRFHQFRTLKAAVGVSVVIWAKELLTSIYFLMHEEVIEDENQHRVCFEHYPIQAWQRAINYYRFLVGFLFPICLLLASYQGILRAVRRSHGTQKSRKDQIQRLVLSTVVIFLACFLPYHVLLLVRSVWEASCDFAKGVFNAYHFSLLLTSFNCVADPVLYCFVSETTHRDEARLRGACLAFLTCSRTGRAREAYPLGAPEASGKSGAQGEEPELLTKLHPAFQTPNSPGSGGFPTGRLA [L297E], for which the cAMP reporter score is -0.697 in data set [1] (pH 5.5); -0.273 in data set [1] (pH 6); -1.12 in data set [1] (pH 6, modulator: ogerin); -1.21 in data set [1] (pH 6.5, modulator: ogerin). Besides, in data set [2], the surface expression score is -1.21.

On to R295_L297del, for which the cAMP reporter score in data set [1] (pH 5.5) was -0.129; in data set [1] (pH 6, modulator: ogerin) it was -0.236; in data set [1] (pH 6.5, modulator: ogerin), 0.341. The surface expression score in data set [2] is -1.04.

In the case of D296del, the cAMP reporter score is -0.749 in data set [1] (pH 5.5); -0.072 in data set [1] (pH 6); -1.12 in data set [1] (pH 6, modulator: ogerin); 0.749 in data set [1] (pH 6.5, modulator: ogerin). The surface expression score in data set [2] was -0.367.
